B1: V-20-Fc (bispecific antibody)
chain 1: EVQLVESGGGLVQPGGSLRLSCSASGTIIGTYTMAWYRQAPGKQREMVAIITPGGGSHHADSVKGRFTISRDNSKNTLYLQMSSLRAEDTAVYYCNAKARWGTTEYWGQGTLVTVSS[human IgG1 Fc with changes not printed]
chain 2: QSQLVESGGGLVKPGGSLRLSCVASGFTISRSIMSWYRQAPGKERDWVASIGSAGNTNYVDSVKGRFTISRDNAKNSLYLQMNSLRAEDTAVYYCKTTLAVSFSEYWGQGTLVTVSSGGGGSGGGGSEVQLVESGGGLVQPGGSLRLSCTASGNIFSSYHMGWFRQAPGKQREFIAYITTREITNYADSVKGRFTISRDNSKNTLYLQMNSLRAEDTAVYYCIADQSREIRRSWGQGTLVTVSS[human IgG1 Fc with changes not printed]
notes: Double-chain trispecific anti-EGFR/cMet antibody
B2: V-26-Fc-PEG-EVC-MMAE: ADC of antibody V-26-Fc and linker-payload Mal-PEG8-EVC-PAB-MMAE (conjugate)
chain 1: QVQLVESGGGLVQPGGSLRLSCAASGRTGSLHAMGWFRQAPGKERERVATLQLSDVSAVTADSVKGRFTISTDNSKNSVYLQMNSLRAEDTAVYYCTASRSPSGIRYYKPDYWGQGTLVTVSS[human IgG1 Fc with changes not printed]
chain 2: QSQLAESGGGLVQSGGSLGLSCVASGFTISRSIMSWYRQPPGKERDWVASIGSAGNTNYVDSVKGRFTISRDVAKNTVYLQMNSLKPEDTAVYYCKTTLAVSFSEYWGQGTQVTVSSGGGGSGGGGSEVQLVESGGGLIQAGGSLRLSCTASGNIFSSYHMGWFRQAPGKQREFIAYITTREITNYADSVKGRFTISRDNSKNTVYLQMNNLRSEDTAVYYCIADQSREIRRSWGQGTLVTVSS[human IgG1 Fc with changes not printed]
B3: V-20-Fc-PEG-EVC-MMAE: ADC of antibody V-20-Fc and linker-payload Mal-PEG8-EVC-PAB-MMAE (conjugate)
chain 1: EVQLVESGGGLVQPGGSLRLSCSASGTIIGTYTMAWYRQAPGKQREMVAIITPGGGSHHADSVKGRFTISRDNSKNTLYLQMSSLRAEDTAVYYCNAKARWGTTEYWGQGTLVTVSS[human IgG1 Fc with changes not printed]
chain 2: QSQLVESGGGLVKPGGSLRLSCVASGFTISRSIMSWYRQAPGKERDWVASIGSAGNTNYVDSVKGRFTISRDNAKNSLYLQMNSLRAEDTAVYYCKTTLAVSFSEYWGQGTLVTVSSGGGGSGGGGSEVQLVESGGGLVQPGGSLRLSCTASGNIFSSYHMGWFRQAPGKQREFIAYITTREITNYADSVKGRFTISRDNSKNTLYLQMNSLRAEDTAVYYCIADQSREIRRSWGQGTLVTVSS[human IgG1 Fc with changes not printed]
B4: V-23-Fc-PEG-EVC-MMAE: ADC of antibody V-23-Fc and linker-payload Mal-PEG8-EVC-PAB-MMAE (conjugate)
chain 1: EVQLLESGGGLVQPGGSLRLSCAASGLTFSYYAMAWFRQAPGKEREFVAAINWNQGNTYNTDSVKGRFTISRDNSKNTVYLQMNSLTPEDTAVYYCAVRYNQASYLVARSSDYNYWGQGTLVTVSS[human IgG1 Fc with changes not printed]
chain 2: QSQLVESGGGLVKPGGSLRLSCVASGFTISRSIMSWYRQAPGKERDWVASIGSAGNTNYVDSVKGRFTISRDNAKNSLYLQMNSLRAEDTAVYYCKTTLAVSFSEYWGQGTLVTVSSGGGGSGGGGSEVQLVESGGGLVQPGGSLRLSCTASGNIFSSYHMGWFRQAPGKQREFIAYITTREITNYADSVKGRFTISRDNSKNTLYLQMNSLRAEDTAVYYCIADQSREIRRSWGQGTLVTVSS[human IgG1 Fc with changes not printed]
B5: V-23-Fc-VA-Exd (bispecific antibody)
chain 1: EVQLLESGGGLVQPGGSLRLSCAASGLTFSYYAMAWFRQAPGKEREFVAAINWNQGNTYNTDSVKGRFTISRDNSKNTVYLQMNSLTPEDTAVYYCAVRYNQASYLVARSSDYNYWGQGTLVTVSS[human IgG1 Fc with changes not printed]
chain 2: QSQLVESGGGLVKPGGSLRLSCVASGFTISRSIMSWYRQAPGKERDWVASIGSAGNTNYVDSVKGRFTISRDNAKNSLYLQMNSLRAEDTAVYYCKTTLAVSFSEYWGQGTLVTVSSGGGGSGGGGSEVQLVESGGGLVQPGGSLRLSCTASGNIFSSYHMGWFRQAPGKQREFIAYITTREITNYADSVKGRFTISRDNSKNTLYLQMNSLRAEDTAVYYCIADQSREIRRSWGQGTLVTVSS[human IgG1 Fc with changes not printed]
modifications: Mal-PEG8-VA-PAB-Exatecan on cysteine, average DAR 4.0 for the whole molecule; positions not given

Columns and labels:
[1] = biological target: T1, cynomolgus monkey cMet-his (ECD, Met1-Thr932) (cynomolgus monkey, UniProt A0A2K5UM36 25-932); assay: SPR, antigen amine-coupled on GLM chip, antibody injected, 1:1 model
T1 construct: Bought; range as printed includes Met1

[2] = biological target: T2, human cMet-his (ECD, Met1-Thr932) (human, UniProt P08581 25-932); assay: as above
T2 construct: Bought; range as printed includes Met1

EBC-1 [3] = assay: FACS binding of ADCs to EBC-1; format: cell-based, human; conditions: ADC, 200 nM or 40 nM, 5-fold diluted; FIG. 17
NCI-H1975 [4] = assay: FACS binding of ADCs to NCI-H1975; format: cell-based, human; conditions: ADC, 200 nM or 40 nM, 5-fold diluted; FIG. 17
EBC-1 [5] = assay: Cell killing assay of ADCs (CCK8), EBC-1; format: cell-based, human; conditions: Target cell: EBC-1
NCI-H1975 [6] = assay: Cell killing assay of ADCs (CCK8), NCI-H1975; format: cell-based, human; conditions: Target cell: NCI-H1975
MDA-MB-468 [7] = assay: Cell killing assay of ADCs (CCK8), MDA-MB-468; format: cell-based; conditions: Table 10A; Target cell: MDA-MB-468; 3-5 days
CDX models = assay: In vivo efficacy of ADCs in CDX mouse models (overall); design: species or system BALB/c nu/nu mice; conditions: for tumor inhibition effects: single intravenous bolus injection on D0, better than ABBV399 and AZD9592, FIG. 21
MDA-MB-468 [8] = assay: FACS binding of ADCs to MDA-MB-468; format: cell-based; conditions: ADC, 200 nM or 40 nM, 5-fold diluted; FIG. 17
EBC-1 CDX = assay: In vivo efficacy, EBC-1 CDX model; design: species or system BALB/c nu/nu mice; conditions: day 54 after administration
NCI-H1975 CDX = assay: In vivo efficacy, NCI-H1975 CDX model; design: species or system BALB/c nu/nu mice; conditions: day 29 after administration
[9] = tested on: NCI-H441 (lung adenocarcinoma cells) CDX; assay: In vivo efficacy, NCI-H441 CDX model; design: species or system BALB/c nu/nu mice; conditions: day 45 after administration
MDA-MB-468 CDX = assay: In vivo efficacy, MDA-MB-468 CDX model; design: species or system BALB/c nu/nu mice; conditions: day 42 after administration

T2 sequence (P08581 25-932): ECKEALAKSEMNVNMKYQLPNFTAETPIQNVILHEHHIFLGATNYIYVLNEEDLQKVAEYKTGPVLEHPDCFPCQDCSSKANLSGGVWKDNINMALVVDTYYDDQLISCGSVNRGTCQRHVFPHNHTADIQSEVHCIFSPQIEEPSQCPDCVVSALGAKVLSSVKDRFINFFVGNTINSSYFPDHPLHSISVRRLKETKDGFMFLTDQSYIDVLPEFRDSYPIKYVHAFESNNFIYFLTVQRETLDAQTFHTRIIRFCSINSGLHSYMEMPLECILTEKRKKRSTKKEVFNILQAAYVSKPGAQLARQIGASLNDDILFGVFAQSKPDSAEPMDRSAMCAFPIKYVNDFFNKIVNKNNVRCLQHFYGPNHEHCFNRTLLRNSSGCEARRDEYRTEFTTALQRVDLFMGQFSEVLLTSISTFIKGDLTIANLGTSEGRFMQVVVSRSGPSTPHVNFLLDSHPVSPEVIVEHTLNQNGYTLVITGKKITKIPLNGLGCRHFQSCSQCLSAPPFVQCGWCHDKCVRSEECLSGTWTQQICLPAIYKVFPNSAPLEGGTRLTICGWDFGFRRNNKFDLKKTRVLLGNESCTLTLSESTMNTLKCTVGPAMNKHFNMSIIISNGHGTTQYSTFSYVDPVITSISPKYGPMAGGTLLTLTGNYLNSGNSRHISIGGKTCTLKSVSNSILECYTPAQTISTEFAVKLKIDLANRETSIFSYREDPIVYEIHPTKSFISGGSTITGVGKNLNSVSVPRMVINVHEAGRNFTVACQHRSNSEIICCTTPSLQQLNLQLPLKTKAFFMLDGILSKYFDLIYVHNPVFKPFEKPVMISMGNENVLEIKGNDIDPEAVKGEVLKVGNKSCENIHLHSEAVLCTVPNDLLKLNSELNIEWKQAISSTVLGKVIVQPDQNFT

| Molecule | binding to EBC-1 cells (EBC-1 [3]) | binding to NCI-H1975 cells (NCI-H1975 [4]) | IC50 (EBC-1 [5]; Table 10A, 3-5 days) [nM] | IC50 (NCI-H1975 [6]; Table 10A, 3-5 days) [nM] | IC50 (MDA-MB-468 [7]) [nM] | tumor inhibition effects (CDX models) | also measured |
| --- | --- | --- | --- | --- | --- | --- | --- |
| B1 | – | – | – | – | – | – | Kd [1]: 4.62 nM; koff [1]: 0.000199 s⁻¹; kon [1]: 43000 M⁻¹ s⁻¹; Kd [2]: 2.37 nM; koff [2]: 0.000365 s⁻¹; kon [2]: 154000 M⁻¹ s⁻¹ |
| B2 | able to bind | able to bind | 0.132 | 0.047 | 0.484 | strong tumor inhibition effects | – |
| B3 | able to bind | able to bind | 0.155 | 0.0934 | 0.128 | strong tumor inhibition effects | – |
| B4 | able to bind | able to bind | 0.141 | 0.046 | 0.0486 | strong tumor inhibition effects | – |
| B5 | – | able to bind | – | – | – | – | binding to MDA-MB-468 cells (MDA-MB-468 [8]): able to bind; IC50 (EBC-1 [5]; Table 10B): 0.138 nM; IC50 (NCI-H1975 [6]; Table 10B): 25.3 nM; in vivo tumor inhibition effect (CDX models; EBC-1, NCI-H1975, NCI-H441 and MDA-MB-468 CDX models, single i.v. dose, FIG. 22): better in vivo tumor inhibition effect than that of the positive control drug AZD9592; efficacy versus AZD9592 (EBC-1 CDX; at a lower dose): better efficacy than AZD9592; tumor elimination (EBC-1 CDX; high-dose): complete tumor elimination; tumor inhibition effect (NCI-H1975 CDX; 2 mg/kg): comparable to that of 4 mg/kg AZD9592; efficacy versus AZD9592 (NCI-H1975 CDX; at the same dose): better efficacy than AZD9592; tumor inhibition effect ([9]; 2 mg/kg): comparable to that of 8 mg/kg AZD9592; efficacy versus AZD9592 ([9]; at the same dose): better efficacy than AZD9592; tumor volume change rate (MDA-MB-468 CDX; 2 mg/kg): -72%; tumor elimination (MDA-MB-468 CDX; 4 mg/kg and 8 mg/kg): completely eliminated |

Source: patent EP4814014A1, “BINDING MOLECULE AND ANTIBODY-DRUG CONJUGATE AND USE THEREOF” (priority 2023, dated 2025)
